Screen size: about 140,000 compounds; about 240 (0.17%) were called active. Inconclusive means that the source gave no clear call. Such entries were picked first, then a sample of the others. The call rests on the fitted dose curve; in most records, active means well fitted inhibition curve with a large enough effect; inconclusive means small, poorly fitted or top-dose-only effect; inactive means no such curve, though single readings can be large or run the other way. Potencies of inconclusive entries are doubtful fits and often do not repeat.
assay: Primary qHTS assay for inhibitors of alpha-synuclein gene (SNCA) expression; details: HEK-293 SNCA-luciferase knock-in, luminescence, 24 h; series mostly up to 57.2 µM; further: nearly all actives have a fitted effect of over 45% in size
Potency means the concentration at half of the fitted maximal effect; tags describe the fitted curve by direction and shape.

Row | SMILES | Potency
1 | COc1ccc2[nH]cc(CCNc3ncncc3-c3ccoc3)c2c1 | inconclusive: 8.91 µM [inhibitor, full curve, poor fit]
2 | O=C(c1nnc(CNCc2cnccn2)n1-c1ccccc1)N1CCC[C@@H]1C(c1ccccc1)c1ccccc1 | inactive
3 | CC(C)CCNC(=O)C1Cn2cccc2C(=O)N1Cc1ccccc1 (configuration not stated) | inactive
4 | CC(=O)Nc1cccc(-c2cc3c(ccn3CC3CCN(C)CC3)c(N3CCOCC3)n2)c1 | inconclusive: 7.08 µM [inhibitor, single point]
5 | Cc1cc(C)c(CNC(=O)c2nc(-c3ccc(CO)cc3)cc3c2ccn3C)c(=O)[nH]1 | inactive
6 | Cc1ccc(NC(=O)C2CCc3nnc(CN[S+](C)(=O)[O-])n32)cc1 (configuration not stated) | inactive
7 | O=C(Nc1cccc(F)c1)[C@@H]1C[C@@H](c2cccc(C(F)(F)F)c2)N(CC2CCOCC2)C1 | inconclusive: 11.2 µM [inhibitor, partial curve, poor fit]
8 | CC1(c2noc(C3CCOCC3)n2)CCN(Cc2ccc(Cl)cc2F)CC1 | inconclusive: 31.6 µM [inhibitor, partial curve, poor fit]
9 | Cc1cc(C)cc(NC(c2nnc(-c3cccc(F)c3)o2)c2ccc(F)cc2Cl)c1 (configuration not stated) | inconclusive: 3.55 µM [inhibitor, single point]
10 | COc1ccc(Cc2nc3ccc(C(=O)NCCc4ccc(OC)c(OC)c4)cc3o2)cc1 | inconclusive: 35.5 µM [inhibitor, single point]
11 | COCCn1c2c(c(=O)n1-c1ccccc1)CCN(C(=O)c1cccc(O)c1)C2 | inactive
12 | Cc1cc(C)c(S(=O)(=O)Nc2cc(Cl)c3oc4c(c3c2)C(=O)CCC4)cc1C | inconclusive: 0.158 µM [inhibitor, partial curve, poor fit]
13 | CCc1cc(C(=O)N2CCCC(c3nnc(Cn4ccnc4)n3C)C2)ccn1 (configuration not stated) | inactive
14 | CC(CO)NS(=O)(=O)c1cccc(C(=O)NCCc2ncnn2C)c1 (configuration not stated) | inconclusive: 39.8 µM [inhibitor, single point]
15 | COCCN1C(=O)[C@@H]2C[C@@H](CN2C)Oc2ccccc21 | inactive
16 | Cc1nc(C2CCCCN2C(=O)Nc2ccccc2F)n[nH]1 (configuration not stated) | inactive
17 | CCCn1c(C)cnc1CC1CCN(C(=O)c2c(C)noc2C)CC1 | inactive
18 | CCS(=O)(=O)N1CCC2(CC1)CN(C1CCC1)CC2COC (configuration not stated) | inconclusive: 39.8 µM [inhibitor, single point]
19 | O=C(NCCc1ccccc1)N1CCC(Oc2ncccc2C(=O)N2CCOCC2)C1 (configuration not stated) | inconclusive: 10 µM [inhibitor, partial curve]
20 | Cn1ccnc1CN1C[C@@H]2C[C@H]1C(=O)N(CC1CC1)c1ccccc1O2 | inconclusive: 56.2 µM [inhibitor, single point]
21 | COc1cccc(CNC(=O)[C@@H]2C[C@@H](O)CN2C2CCN(C(=O)c3ccsc3)CC2)c1 | inconclusive: 3.16 µM [inhibitor, single point]

Row | SMILES | Potency
22 | O=C(c1ccc(C(F)(F)F)cc1)N1CCN(Cc2ccccc2-c2cccnc2)CC1 | inactive
23 | Cc1nnc(-c2cc(N3CCN(c4ccccn4)CC3)ccn2)n1-c1ccccc1 | inactive
24 | COc1cc(Nc2nc(SCC(=O)c3ccc(Cl)c(Cl)c3)nc3ccccc23)cc(OC)c1 | inconclusive: 31.6 µM [inhibitor, partial curve, poor fit]
25 | Cc1ccc(CN2CCCn3nc(C)c(-c4ccccc4-c4ccccc4)c32)o1 | inconclusive: 56.2 µM [inhibitor, single point]
26 | COc1ccccc1Nc1ccnc(N2CCN(C(=O)NC(C)C)CC2)n1 | inconclusive: 2.24 µM [inhibitor, full curve]
27 | CC(C)Cc1cc(CNC(=O)Nc2nnc(C(C)(C)C)s2)on1 | inactive
28 | Cc1ccc(CNc2ccc3cc(S(=O)(=O)N4CCCCC4)ccc3n2)cc1 | inconclusive: 35.5 µM [inhibitor, single point]
29 | CCCCN(C)C(=O)c1ccc2c(c1)N(Cc1cccc(F)c1)C(=O)c1ccccc1S2 | inconclusive: 39.8 µM [inhibitor, single point]
30 | Clc1ccc(-n2c(Cc3ccccc3)nnc2SCc2nc(-c3cccs3)no2)cc1 | inconclusive: 39.8 µM [inhibitor, single point]
31 | COc1cccc(C(=O)N2CCN(C(=O)c3nc4cccnc4n(C4CCCC4)c3=O)CC2)c1 | inactive
32 | Cc1ccc(NC(=O)C2CCCN(S(=O)(=O)c3c(C)noc3C)C2)cc1 (configuration not stated) | inconclusive: 7.08 µM [inhibitor, single point]
33 | Cc1ccc(CN2Cc3[nH]cnc3C[C@H]2C(=O)N2CCC(Cc3ccccc3)CC2)cc1 | inconclusive: 56.2 µM [inhibitor, single point]
34 | Cc1ccc(Nc2ccnc(N3CCCN([S+](=O)([O-])c4cccs4)C3)n2)cc1 | inactive
35 | COc1ccccc1Nc1ccnc(N2CCCC(C(=O)NCCc3ccc(Cl)cc3)C2)n1 (configuration not stated) | inconclusive: 8.91 µM [inhibitor, partial curve]
36 | CC(=O)N[C@H](CC(C)C)c1nc(-c2ccc(C)nn2)no1 | inconclusive: 1.78 µM [inhibitor, partial curve, poor fit]
37 | Cc1ccc(C(=O)c2cn(Cc3ccccc3)c3nc(C)ccc3c2=O)cc1 | inconclusive: 3.55 µM [inhibitor, single point]
38 | Cc1nc(N2CCCC2)c2c(C(=O)N3CCN(c4cc(Cl)ccc4C)CC3)c(C)oc2n1 | inconclusive: 39.8 µM [inhibitor, single point]
39 | Cc1ccccc1N1Cc2c(ncnc2N2CCC(O)CC2)N(C)CC1=O | inactive
40 | COc1cccc(NC(=O)Cn2c(C)ccc(NS(=O)(=O)c3ccccc3)c2=O)c1 | inconclusive: 35.5 µM [inhibitor, single point]
41 | CC(C)N(C[C@H]1O[C@@H](n2cnc3c(N)ncnc32)[C@H](O)[C@@H]1O)C1CC(CCc2nc3ccc(C(C)(C)C)cc3[nH]2)C1 (some centres not stated) | inconclusive: 27 µM [inhibitor, single point]
42 | Cc1ccc(N2C(=O)CSC23C(=O)N(Cc2ccccc2F)c2ccccc23)cc1F (configuration not stated) | inconclusive: 28.2 µM [inhibitor, partial curve, poor fit]
